# According to paper PMC4336329 (PLoS ONE, 2015):
# Screen size: about 310,000 compounds; about 2,200 (0.71%) showed an effect of 50% or more. Effects have a minus sign here. The list shows a part of the results.
# Molecular target: human ether-à-go-go-related gene (hERG) potassium channel (human, UniProt Q12809)
# Assay: primary screen, population patch clamp on CHO cells stably expressing hERG
# Sequence of human ether-à-go-go-related gene (hERG) potassium channel (Q12809 whole entry, looked up): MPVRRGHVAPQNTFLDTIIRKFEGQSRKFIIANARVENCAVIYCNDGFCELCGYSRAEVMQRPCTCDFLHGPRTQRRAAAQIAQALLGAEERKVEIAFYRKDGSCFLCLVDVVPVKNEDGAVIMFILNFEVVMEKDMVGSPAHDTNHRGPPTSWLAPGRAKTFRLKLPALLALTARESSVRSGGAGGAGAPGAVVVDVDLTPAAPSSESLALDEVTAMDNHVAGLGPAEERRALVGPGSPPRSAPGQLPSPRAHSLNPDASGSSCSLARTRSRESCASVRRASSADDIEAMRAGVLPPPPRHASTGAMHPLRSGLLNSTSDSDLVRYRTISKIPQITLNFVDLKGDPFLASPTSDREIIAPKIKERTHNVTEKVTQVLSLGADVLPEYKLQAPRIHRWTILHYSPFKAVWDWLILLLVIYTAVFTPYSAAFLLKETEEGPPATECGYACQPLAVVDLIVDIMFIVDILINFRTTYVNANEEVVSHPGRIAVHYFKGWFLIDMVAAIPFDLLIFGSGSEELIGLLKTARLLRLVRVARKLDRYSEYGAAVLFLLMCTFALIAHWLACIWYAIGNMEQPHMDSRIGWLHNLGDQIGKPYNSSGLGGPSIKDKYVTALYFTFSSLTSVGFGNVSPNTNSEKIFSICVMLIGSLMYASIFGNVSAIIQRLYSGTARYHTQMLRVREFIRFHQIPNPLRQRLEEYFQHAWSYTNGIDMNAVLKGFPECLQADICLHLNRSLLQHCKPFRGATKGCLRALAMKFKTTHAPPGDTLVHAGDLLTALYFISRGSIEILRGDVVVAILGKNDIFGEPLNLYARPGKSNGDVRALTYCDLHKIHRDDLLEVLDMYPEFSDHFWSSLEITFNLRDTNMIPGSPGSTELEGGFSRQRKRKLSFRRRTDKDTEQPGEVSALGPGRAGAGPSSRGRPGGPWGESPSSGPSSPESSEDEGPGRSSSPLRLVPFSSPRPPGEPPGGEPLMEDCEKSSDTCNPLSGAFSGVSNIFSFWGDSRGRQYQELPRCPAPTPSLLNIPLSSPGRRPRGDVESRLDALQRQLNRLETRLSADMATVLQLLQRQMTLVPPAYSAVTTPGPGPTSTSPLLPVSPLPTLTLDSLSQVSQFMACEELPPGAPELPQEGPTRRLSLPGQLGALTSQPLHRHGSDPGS
row,Compound,"hERG current change (%, negative = inhibition) at 1uM"
1,COc1ccc(CNC(=O)c2ccc3c(=O)n(-c4ccccc4)c(=O)[nH]c3c2)cc1,12.5%
2,Cc1ccc(-c2noc(CNCCCN(C)C)n2)cc1,10.5%
3,Cc1ccc(NS(=O)(=O)c2ccc3c(c2)NC(=O)CCS3)cc1C,11.4%
4,CCCC1CC(C)(c2csc(Nc3ccc(OCC)cc3)n2)OC1=O (centres unmarked),-0.99%
5,CC(C)NC(=O)CSc1nc(Cc2ccccc2)nc2ccccc12,18.3%
6,Cc1nn(C)c(C)c1/C=C(/C(=O)C(C)(C)C)n1cncn1,15.3%
7,CCOC(=O)C1=C(O)C(=O)N(c2ccc(S(N)(=O)=O)cc2)C1c1ccc([N+](=O)[O-])cc1 (centres unmarked),-4.62%
8,Cc1ccccc1NC(=O)c1cccc2c1C(=O)N(C1CCCCC1)C2,15%
9,CCc1nc2ccc(C(=O)N3CCN(c4ccccc4F)CC3)cc2nc1CC,10.7%
10,O=C(CN1C(=O)NC2(CCCCCC2)C1=O)Nc1cccc(F)c1,2.71%
11,COc1cccc(NC(=O)CN(C)C(=O)c2cc(-c3ccc(F)cc3)nc3ccccc23)c1,-1.95%
12,O=C(O)c1cccc(NCc2ccncc2)c1,11.5%
13,O=C(Nc1nc2ccccc2[nH]1)C1CCN(S(=O)(=O)c2cccs2)CC1,12%
14,COc1ccc(/C=N\NC(=O)COc2ccc(Cl)cc2Cl)c(C(=O)O)c1OC,4.37%
15,COC(=O)c1cccc(C23CC4(C2)[C@H](CN(Cc2ccc(C(F)(F)F)cc2)[C@@H]4c2ccccc2)C3c2ccc(C(F)(F)F)cc2)c1 (some centres unmarked),5.76%
16,Nc1ccccc1S(=O)(=O)C(F)F,16.3%
17,COc1ccc(NC(=O)C(=O)c2cn(CC(=O)N3CCCC3)c3ccccc23)cc1OC,6.63%
18,CN(CC(=O)Nc1ccc(Cl)cc1)C(=O)c1ccc(NS(=O)(=O)c2ccc3[nH]c(=O)[nH]c3c2)cc1,2.09%
19,CCN(CC)CCN=Cc1c(O)n(Cc2ccccc2)c(=O)[nH]c1=O [26665338],-11.8%
20,CC(=O)c1ccc(N2CCN(C(=O)COc3ccc4c(c3)CCC4)CC2)cc1,-7.88%
21,COc1ccc(N2CC(C(=O)Nc3ccc(F)cc3F)CC2=O)cc1 (centres unmarked),5.59%
22,Cc1cccc(C(C)C)c1NC(=O)CN(C)Cc1cccc(F)c1,10.3%
23,O=C(NCCOc1ccc(F)cc1)C1CCC(=O)N(CCCN2CCOCC2)C1 (centres unmarked),15%
